Measured values taken from PubChem BioAssay (NCI).
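Five concentrations, 48 hours, 96-well plates. GI50 marks 50% less growth. TGI: concentration producing complete growth inhibition.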

system: NCI-H322M lung; test: NCI anticancer screen, dose series, 48 h

Row | Structure (SMILES) | GI50 [µM] | TGI [µM]
1 | CCc1ccc(Oc2nccc(-c3c(-c4ccc(F)cc4)ncn3C3CCNCC3)n2)cc1 | 12.8 | 22.7
2 | CS(=O)/C(C#N)=C\C=C\c1cccc(Cl)c1 (centres undefined) | 2.44 | 13.6
3 | c1cc2ccc3cc2cc1CNCCOCCNCc1ccc2ccc(cc2c1)CNCCOCCNC3 | > 100 | > 100
4 | O=C1c2ccccc2-c2c1c1c(O)cccc1n2CCCc1ccccc1 | 32.6 | > 100
5 | O=C(N/N=C/c1ccncc1)c1ccc(C(F)(F)F)nc1Nc1cccc(C(F)(F)F)c1 | 1.7 | 7.8
6 | C=CCC1(O)C(=O)OC2C(O)COC21O (centres undefined) | – | > 100
7 | CCOC(=O)CCC(NC(=O)c1ccc(OCc2ccc3nc(OC)c(OC)nc3c2)cc1)C(=O)OCC (centres undefined) | – | > 100
8 | CC(=O)O[C@@H]1[C@@H](C)[C@]2(CC(c3ccoc3)OC2O)C2CCC3O[C@]3(C)[C@]2(C)[C@@H]1OC(C)=O (some centres undefined) | – | > 100
9 | CCn1c(SCC(=O)NNC(=S)Nc2ccc(Cl)cc2)nc2ccccc2c1=O | – | > 100
10 | O=C1C=CC(=O)c2c1cc1ccccc1c2O | – | 33.5
11 | Cc1ccc(S(=O)(=O)N/N=C2/C3C(CC2(C)C)C2(C)CCCC3(C)C2O)cc1 (centres undefined) | – | 44
12 | O=S(=O)(c1ccccc1)n1cnc(CCc2ccccc2)n1 | – | > 100
13 | O=S1CCN(Cc2ccc(-c3ccc4ncnc(Nc5ccc(OCc6ccccc6)c(F)c5)c4c3)o2)CC1 | 0.983 | > 25
14 | COc1ccccc1/C=C1\N=C(C)OC1=O | – | > 100
15 | CN(CCNC(=O)c1cn(C)c2c1ccc1cc(Cl)ccc12)CCNC(=O)c1cn(C)c2c1ccc1cc(Cl)ccc12 | – | 3.47
16 | CCOC(=O)C/C(N)=C(\C#N)C(=O)OCC | – | > 100
17 | O=C(O)CC1C(=O)OC2C3COC(=O)c4cc(O)c(O)c(O)c4-c4c(cc(O)c(O)c4O)C(=O)OC2C(OC(=O)c2cc(O)c(O)c4c2C1C(O)C(=O)O4)C(OC(=O)c1cc(O)c(O)c(O)c1)O3 (centres undefined) | – | > 100
18 | O=C1CC(NC2CC(=O)c3c(Br)sc(Br)c32)c2c(Br)sc(Br)c21 (centres undefined) | – | 26.1
19 | CSC1=N/C(=C\c2ccccc2)C(=O)N1CN1CCOCC1 | – | > 100
20 | c1ccc2c(c1)ncn2CCn1ccnc1 | – | > 100
21 | C[C@@H](Oc1cc(-c2cnn(C3CC4(CNC4)C3)c2)cnc1N)c1c(Cl)ccc(F)c1Cl | 10.1 | 23.2
22 | O=C1/C(=C/c2ccc3c(c2)OCO3)Sc2scc(-c3ccc(O)c(O)c3)[n+]21 | – | 29.1

Row | Structure (SMILES) | GI50 [µM] | TGI [µM]
23 | COC(=O)CCN1CCN(CCO)CC1C (centres undefined) | – | > 10
24 | CCOC(=O)c1c(C(F)(F)F)n([O-])c2ccc(Cl)cc2[n+]1=O | 4.53 | 19.4
25 | O=C1CC(NCCCNC2CC(=O)c3c(Br)sc(Br)c32)c2c(Br)sc(Br)c21 (centres undefined) | – | 14.4
26 | CC(C)(C)c1cc(Oc2ccc(C#N)c(C#N)c2)cc(C(C)(C)C)c1 | – | > 100
27 | c1ccc(-c2sc(-c3ccccc3)c3c2C2CCC3C2)cc1 | – | > 100
28 | C[N+](C)(C)CC(=O)N/N=C/c1oc(-c2cccc([N+](=O)[O-])c2)c(-c2cccc([N+](=O)[O-])c2)c1[N+](=O)[O-] | – | > 100
29 | CC(C)(C)OC(=O)N(CCCCNC(=O)c1ccccc1)CCCNC(=O)c1ccccc1 | – | > 100
30 | CC(=O)N1N=C(c2ccccc2Nc2ccccc2C2=NN(C(C)=O)C(c3ccccc3)O2)OC1c1ccccc1 (centres undefined) | – | > 100
31 | O=C1NC(=O)C(N2CCc3ccccc32)=C1c1ccc(Cl)cc1 | > 25 | > 25
32 | c1csc(-c2cscc2-c2cccs2)c1 | – | > 100
33 | COc1ccc(C(=O)/C=C/c2ccc(OCC#N)cc2)cc1OC | – | 41
34 | COC(=O)c1ccc(-n2c(C)nc(=O)c(-c3ccccc3)c2C)cc1 | – | > 100
35 | Cc1ccccc1C(=O)NC(O)(C(F)(F)F)C(F)(F)F | – | > 100
36 | O=[N+]([O-])c1ccc(/C=N/n2c(CCc3n[nH]c(=S)n3/N=C/c3ccc([N+](=O)[O-])o3)n[nH]c2=S)o1 | – | > 100
37 | O=c1c(-c2ccc3c(c2)OCO3)coc2c(CO)c(O)ccc12 | 3.04 | 9.3
38 | CC1=C(C(=O)Nc2cccc(C(F)(F)F)c2)C(c2ccccc2F)C(C(=O)Nc2cccc(C(F)(F)F)c2)=C(C)N1 | – | 25
39 | CCOC(=O)C1=C(C)NC(C)=C(C(=O)OCC)C1c1cc(Br)c(O)c(OC)c1 | 8.69 | 31.6
40 | Cc1ccc(N(C)S(=O)(=O)c2ccccc2)cc1 | – | > 100
41 | CC(=O)n1cc(CC(C)O)c(=O)[nH]c1=O (centres undefined) | – | > 100
42 | COC(=O)[C@H]1CC(=O)C=C2CCCC21 (some centres undefined) | – | > 100
43 | O=S1c2ccccc2N=C(c2ccc3ccccc3c2)CC1c1ccccc1F (centres undefined) | – | > 100
